Consider 39 variants from the RNAGym collection of RNA variant scans (doi:10.7554/elife.90254).

The source gives no read counts; variants with many changes may rest on few reads.

B1: LINE1-full (parent)
chain: UACGUAGGUGGUUUUCCCCUGAUAGUGCUAAGGGGGCCUGGAAGUUUGGACUGGGCAGAGCUCAACACAGCGUGGCAAAGUGGCUGUGGCUAGACUGCCUCUCUGGAUUCCUCGUCACUCAGCAGGGCAUCUCUGAGAGAAAUGCC

The variants in this data set derive from B1. Put plainly: self-cleavage, relative activity (ratio to wild type); higher = more cleavage; in vitro, sequencing; the parent is a self-cleaving ribozyme.
Take UACGUAGAUGGUUUUCCCCUGAUAGUGCUAAGGGGGCCUGGAAGUUUGGACUGGGCAGAGCUCAACACAGCGUGGCGAAGUGGCUGUAGCUAGACUGCCUCUCUGGAUUCCUCGUCACUCAGCAGGGCAUCUCUGAGAGAAAUGCC [G8A A77G G88A]: the self-cleavage was determined as 0.11. The value for UACGUAGUUGGUUUUCCCCUGAUAGUGCUAAGGGGGCCUGGAAGUUUGGGCUGGGCAGAGCUCAACACAGCGUGGCAAAGUGGCUGUGGCUAGACUGCCUCUCUGGAUUCCUCGUCACUCAGCAGGGCAUCUCUGAGAGAGAUGCC [G8U A50G A141G] was 1.6; that for UACGUAGAUGGUUUUCCCCUGAUAGUGCUAAGGGGGCCUGGAAGUUUGGACUGGGCAGAGCUCAACACAGCGUGGCAAAGUGGCUGUGGCUAGACUGCCUCUCCGGAUUCCUCGUCACUCAGCAGGGCAUCUCUGAGAGAUAUGCC [G8A U104C A141U] was 1.59; that for UACGUAGGAGGUUUUCCCCUGGUAGUGCUAAGGGGGCCUGGAAGUUUGGACUGGGCAGAGCUCAACACAGCGUGGCAAAGUGGCUGUGGCUAGACUGCCUCUCUGGAUUCCUCGUCACUCAGCAGGGCAUCUCUGAGGGAAAUGCC [U9A A22G A138G] was 1.04. The value for UACGUAGGAGGUUUUCCCCUGAUUGUGCUAAGGGGGCCUGGAAGUUUGGACUGGGCAGAGCUCAACACAGCGUGGCAAAGUGGCUGUGGCUAGACCGCCUCUCUGGAUUCCUCGUCACUCAGCAGGGCAUCUCUGAGAGAAAUGCC [U9A A24U U96C] was 0.64; that for UACGUAGAUGGUUUUCCCCUGAUAGUGCUAAGGGGGCCUGGAAGUUUGGACUGGGCAGAGCUCAACACAGCGUGGCAAAGUGGCUGUGGCUAGACUGCCUCUCUGGAUUCCUCGACACUCAGCAGGGCAUCUCGGAGAGAAAUGCC [G8A U115A U134G] was 1.61. The value for UACGUAGAUGGCUUUCCCCUGAUAGUGCUAAGGGGGCCUGGAAGUUUGGACUGGGCAGAGCUCAACACAGCGUGGCAAAGUGGCUGUGGCUAGACUGCCUCUCUGGAUUCCUCGUCACUCAGCAGGGCGUCUCAGAGAGAAAUGCC [G8A U12C A129G U134A] was 0.88; that for UACGUAGCUGGUUUUCCCCUGAUAGUGCUAAGGGGGCCUGGGAGUUUGGACUGGGCAGAGCUCAACACAGCGUGGCAAAGUGGCUGUGGCUAGACUGCCUCUCUGGAUUCCUCGUCACUUAGCAGGGCAUCUCUGAGAGAAAUGCC [G8C A42G C120U] was 1.27. On to UACGUAGUUGGUCCUCCCCUGAUGGUGCUAAGGGGGCCUGGAAGUUUGGACUGGGCAGAGCUCAACACAGCGUGGCAAAGUGGCUGUGGCUAGACAACCUCUCUGGAUUCCUCGUCACUCAGCAGGGCAUCUCUGAGAGAAAUGCC [G8U U13C U14C A24G U96A G97A], for which the self-cleavage was found to be 0.27.

Consider UACGUAGAUGGUUUUCCCCUGAUAGUGCUAAGGGGGCCUGGAAGUUUGGACUGGGCAGAGCUCAACACAGCGUGGCAAAGUGGACGUGGCUAGACUGCCUCUCUGGAUUCCUCGCCACUCAGCAGGGCAUCUCUGAGAGAAAAGCC [G8A C84A U85C U115C U143A], for which the self-cleavage turned out to be 0.03.

For UACGUAGAUGGUUUUCCCCUGAUAGCGCUAAGGGGGCCUGGAAGUUUGGACUGGGCAGAGCUCAACACAGCGUGGCAAAGUGGCUGUGGCAAGACUGCCUCUCUGGAUUCCUCGUCACUCAGCAGGGCAUCUCUGAGAGAAAUGCC [G8A U26C U91A], the self-cleavage worked out at 0.86. Under UACGUAGGAGGUUUUCCCCUGGUGGUGCUAAGGGGGCCUGGAAGUUUGGACUGGGCAGAGCUCAACACAGCGUGGCAAAGUGGCUGUGGCUAGACUGCCUCUCUGGAUUCCUCGUCACUCAGCAGGGCAUCCCUGAGAGCAAUGCC [U9A A22G A24G U132C A140C] stands 0.62; under UACGUAGGAGGUUUUCCCCUGAUGGUGCUAAGGGGGCCUGGAAGUUUGGACUGGGCAGAGCUCAACACAGCGUGGCAAAGUGGCUGUGGCUAGACUGCCUCUCUGGAUUCCUCGUCACUCAGCAGGGCAUCUCUGAGAGGAAUGCC [U9A A24G A140G], 0.99; under UACGUAGAUGGUUUUCCCCUGAUAGUGCUAAGGGGGCCUGGAAGCUUGGACUGGGCAGAGCUCAACUCAGCGCGGCAAAGUGGCUGUGGCUAGACUGCCUCUCUGGAUUCCUCGUCACUCAGCAGGGCAUCUCUGAGAGAAAUGCC [G8A U45C A67U U73C], 0.11. The value for UACGUAGGAGGUUUUCCCCUGGUAGAGCUAAGGGGGCCUGGAAGUUUGGACUGGGCAGAGCUCAACACAGCGUGGCAAAGUGGCUGUGGCUAGACUGCCUCUCUGGAUUCCUCGUCACUCAGCAGGGCAUCUCUGAGGGAAAUGCC [U9A A22G U26A A138G] was 0.81. The value for UACGUAGGAGGUUUUCCCCUGGUAGUGCUAAGGGGGCCUGGAAGUUUGGACUGGGCAGAGCCCAACACAGCGUGGCAAAGUGGCUGUGGCUAGACUGCCUCUCUGGAUUCCUCGUCACUCAGCAGGGCAUCUCUGAGGGAAAUGCC [U9A A22G U62C A138G] was 0; that for UACGUAGUUGGUUUUCCCCUGAUAGUGCUAAGGGGGCCUGGAAGUUCGGACUGGGCAGAGCUCAACACAGCGUGGCAAAGUGGCUGUGGCUAGACUGCCUCUCUGGAUUCCUCGUCACUCAGCAGGGCAUCCCUGAGAGAAAUGCC [G8U U47C U132C] was 0.98. Take UACGUAGACGGUUUUCCCCUGGUAGUGCUAAGGGGGCCUGGAAGUUUGGACUGGGCAGAGCUCAACACAGCGUGGCAAAGUGGCUGUGGCUAGACUGCCUCCCUGGAUUCCUCGUCACUCAGCAGGGCAUCUCUGAGAGGAAUGCC [G8A U9C A22G U102C A140G]: the self-cleavage was 0.39. The value for UACGUAGCUGGUUUUCCCCUGAUAGUGCUAAGGGGGCCUGGGAGUUUGGACUGGGCAGAGCUCAGCACGGCGUGGCAAAGUGGCCGUGGCUAGACUGUCUCUCUGGAUUCCUCGUCACUCAGCAGGGCAUCUCUGAGAGAAAUGCC [G8C A42G A65G A69G U85C C98U] was 0; that for UACGUAGAUGGUUUUCCCCUGAUAGUGCUAAGGGGACCUGGAAGUUUGGACUGGGCAGAGCUCAACACAGCGUGGCAAAGUGGCUGUGGCUAGACUGCCUCUCUGGAUUCCUCGUCACUCAGCAGGGCGUCUCUGAGAGAGAUGCC [G8A G36A A129G A141G] was 1.97; that for UACGUAGUUGGUUUUCCCCUGAUAGUGCUAAGGGGGCCUGGAAGUUUGGACUGGGCAAAGCUCAACACAGCGUGGCAAAGUGGCUGAGGCUAGACUGCCUCUCUGGAUUCCUCGUCACUCAGCAGGGCAUCUCUGAGAGAAAUGCC [G8U G58A U87A] was 0.08. Under UACGUAGAUGGUUUUCCCCUGAUAGUGCUAAGGGGGCCUGGAAGUUUGGACAGGGCAGAGCUCAACACAGCGUGGCAAAGUGGCUGUGGCUAGACUGCCUCUCUGGAUUCCUCGUCGCUCAGCUGGGCAUCUCUGAGAGAAAUGCC [G8A U52A A117G A124U] stands 2.01; under UACGUAGGAGGUUUUCCCCUGAUAGUGCUGAGGGGGCCUGGAAGUUUGGACUGGGCAGAGCUCAACACAGCGUGGCAAAGUGGCUGUGGCUAGACUGCCUCUCUGGAUUCCUCGUCACUCAGCAGGGCAUCUCUGAGAGGAAUGCC [U9A A30G A140G], 1. In the case of UACGUAGGAGGUUUUCCCCUGAUAGUGCUAGGGGGGCCUGGAAGUUUGGACUGGGCAGAGCUCACCACAGCGUGGCAAAGUGGCUGUGGCUAGACUGCCUCUCUGGAUUCCUCGUCACUCAGCAGGGCAUCUCAGAGAGAAAUGCC [U9A A31G A65C U134A], the self-cleavage was 0.27. Consider UACGUAGUUGGUUUUCCCCUGAUAGUGCUAAGGGGGCCUGGAAGUUUGGACUGGGCAGAGCUCAACACAGCGUGGCAAAGUGGCUGUGGCGAGACUGCCACUCUGGAUUCCUCGUCACUCAGCAGGGCAUCUCUGUGAGAAGUGCC [G8U U91G U100A A136U A142G], for which the self-cleavage is 0.09. Under UACGUAGAUGGUUUUCCCCUGAUAGUGCUAAGGGGGCCUGGAAGUUUGGACUGGGCAGAGCUCAACACAGCGUGGCAAGGUGGCUGUGGCUAGACUGCCUCUCUGGACUCCUCGUCACUCAGCAGGGCAUCUCCGAGAGAAAUGCC [G8A A79G U108C U134C] stands 2.3; under UACGUAGGAGGUUUUCCCCUGAUAGUGCUGAGGGGGCCUGGAAGUUUGGACUGGGCAGAGCUCAACACAGCGUGGCUAAGUGGCUGUGGCUAGACUGCCUCUCUGGAUUCCUCGUCACUCAGCAGGGCAUCUCUGAGAGAAAUGCC [U9A A30G A77U], 0.59.

As for UACGUAGGAGGUUUUCCCCUGGUAGUGCUAAGGGGGCCUGGAAGUUUGGACUGGGCAGAGCUCAACACAGCGAGGCAAGGUGGCUGUGGCUGGACUGCCUCUCUGGAUUCCUCGUCACUCAGCAGGGCAUCUCUGAGAGAAAUGCC [U9A A22G U73A A79G A92G], the self-cleavage was determined as 0.48. The value for UACGUAGAUGGUUUUCCCCUGAUAGUGCUAAGGGGGCCUGGAAGUUUGGACUGGGCAGAGCUCAACACAGCGCGGCAAAGUGGCUGUGGCUAGACUGCCUCUCCGGAUUCCUCGUCACUCAGCAGGGCAUCUCUGAGAGAAAUGCC [G8A U73C U104C] was 2.55; that for UACGUAGGAGGUUUUCCCCUGAUAGUGCUAAGGGGGCCUGGGAGUUUGGACUGGGCAGAGCUCAAUACAGCGUGGCAAAGUGGCUGUGGCUAGACUGCCUCUCUGGGUUCCUCGUCACUCAGCAGGGCACCUCUGAGAGAAAUGCC [U9A A42G C66U A107G U130C] was 0; that for UACGUAGGAGGUUUUCCCCUGAUAGUGCUGGGGGGGCCUGGAAGAUUGGACUGGGCAGAGCUCAAAACAGCGUGGCAGAGUGGCUGUGGCUAGACUGCCUCUCUGGAUUCCUCGUCACUCAGCAGGGCAUCUCUGAGAGAAAUGCC [U9A A30G A31G U45A C66A A78G] was 0. Under UACGUAGUUGGUUCUCCCCUGAUAGUGCUAAGGGGGCCUGGAAGCUUGGACUGGGCAGAGCUCAACACAGCGUGGCAAAGUGGCUGUGGCUAGACUGCCUCUCUGGAUUCCUCGCCACUCAGCAGGGCAUCUCUGGGAGAAAUGCC [G8U U14C U45C U115C A136G] stands 2.3. Under UACGUAGAUGGCUUUCCCCUGAUAGUGCCAUGGGGGCCUGGAAGUUUGGACUGGGCAGAGCUCAACACAGCGUGGCAAAGUGGCCGUGGCUAGACUGCCUCUCUGGAUUCCUCGUCACUCAGCAGGGCAUCUCUGAGAGGAAUGCC [G8A U12C U29C A31U U85C A140G] stands 0; under UACGUAGCUGGUUUUCCCCUGAUAGUGCUAAGGGGGCCAGGAAGUUUGGACUGGGCAGAGCUCAACACAGCGUGGCAAAGUGGCUGUGGCUAGACUGCCUCUCUGGAUUCCCCGUCACUCAGCAGAGCAUCUCUGAGAGAAAUGCC [G8C U39A U112C G126A], 1.7; under UACGUAGGAGGUUUUCCCCUGAUAGUGCUUAGGGGGCCUGGAGGUUUGGACUGGGCAGAGCUCAACACAGCGUGGCAAAGUGGCUGAGGCUAGACUGCCUCUCUGGAUUCCUCGUCACUCAGCAGGGCAUCUCAGAGAGGAAUGCC [U9A A30U A43G U87A U134A A140G], 0.18. As to UACGUAGAUGGUUUUCCCCCGAUAGUGCUAAGGGGGCCUGGAAGUUUGGACUGGGCAGAGCUCAACGCAGCGUGGCAAAGUGGCUGUGGCUAGGCUGCCUCUCUGGAUUCCUCGUCACUCAGCAGGGCAUCUCUGAGAGGAAUGCC [G8A U20C A67G A94G A140G], the self-cleavage turned out to be 0.32. Under UACGUAGUUGGUUUUCCCCUGAUAGUGCUAAGGGGGCCUGGAAGUUUGGACUGGGCAGAGCUCAACACAGCGUGGCAAAGUGGCUGUGGCUAGACUGCCUCUCUGGAUUCCUCGUCACUCAGCAGGGCAUCCCUGAGAGGAAUGCC [G8U U132C A140G] stands 1.69; under UACGUAGAUGGUUUUCCCCUGAUAGUGCUAAGGGGGCCUGGAAGUUUGGACUGGGCAGAGCUCAACACAGCGUGGCAAAGUGGCUGUGGCUAGACUGCCCCUCUGGAUUCCUCGUCACUCAGCAGGGCAUCUCCGAGAGAAAUGCC [G8A U100C U134C], 1.51. The value for UACGUAGAUGGUUUUCCCCUGAUAGUGCUAAGGGGGCCUGGAAGUUUGGACUUGGCAGAGCUCAACACGGCGUGGCAAAGUGGCUGUGGCUAGACUGCCUCUCUGGAUUCCUCGUCACUCAGCAGGGCAUCUCUGAGAGAAAUGCC [G8A G53U A69G] was 0.57.
